Experimental data published in article PMC4336329 (PLoS ONE, 2015).
Screen size: about 310,000 compounds; about 14,000 (4.5%) showed an effect of 50% or more. Effects have a minus sign here. The list shows a part of the results.

Target: human ether-à-go-go-related gene (hERG) potassium channel (human, UniProt Q12809)
Experiment: primary screen, population patch clamp on CHO cells stably expressing hERG
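Note: peak tail current of the secondary pulse compared with the same well before compound.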

human ether-à-go-go-related gene (hERG) potassium channel, sequence (Q12809 whole entry, looked up): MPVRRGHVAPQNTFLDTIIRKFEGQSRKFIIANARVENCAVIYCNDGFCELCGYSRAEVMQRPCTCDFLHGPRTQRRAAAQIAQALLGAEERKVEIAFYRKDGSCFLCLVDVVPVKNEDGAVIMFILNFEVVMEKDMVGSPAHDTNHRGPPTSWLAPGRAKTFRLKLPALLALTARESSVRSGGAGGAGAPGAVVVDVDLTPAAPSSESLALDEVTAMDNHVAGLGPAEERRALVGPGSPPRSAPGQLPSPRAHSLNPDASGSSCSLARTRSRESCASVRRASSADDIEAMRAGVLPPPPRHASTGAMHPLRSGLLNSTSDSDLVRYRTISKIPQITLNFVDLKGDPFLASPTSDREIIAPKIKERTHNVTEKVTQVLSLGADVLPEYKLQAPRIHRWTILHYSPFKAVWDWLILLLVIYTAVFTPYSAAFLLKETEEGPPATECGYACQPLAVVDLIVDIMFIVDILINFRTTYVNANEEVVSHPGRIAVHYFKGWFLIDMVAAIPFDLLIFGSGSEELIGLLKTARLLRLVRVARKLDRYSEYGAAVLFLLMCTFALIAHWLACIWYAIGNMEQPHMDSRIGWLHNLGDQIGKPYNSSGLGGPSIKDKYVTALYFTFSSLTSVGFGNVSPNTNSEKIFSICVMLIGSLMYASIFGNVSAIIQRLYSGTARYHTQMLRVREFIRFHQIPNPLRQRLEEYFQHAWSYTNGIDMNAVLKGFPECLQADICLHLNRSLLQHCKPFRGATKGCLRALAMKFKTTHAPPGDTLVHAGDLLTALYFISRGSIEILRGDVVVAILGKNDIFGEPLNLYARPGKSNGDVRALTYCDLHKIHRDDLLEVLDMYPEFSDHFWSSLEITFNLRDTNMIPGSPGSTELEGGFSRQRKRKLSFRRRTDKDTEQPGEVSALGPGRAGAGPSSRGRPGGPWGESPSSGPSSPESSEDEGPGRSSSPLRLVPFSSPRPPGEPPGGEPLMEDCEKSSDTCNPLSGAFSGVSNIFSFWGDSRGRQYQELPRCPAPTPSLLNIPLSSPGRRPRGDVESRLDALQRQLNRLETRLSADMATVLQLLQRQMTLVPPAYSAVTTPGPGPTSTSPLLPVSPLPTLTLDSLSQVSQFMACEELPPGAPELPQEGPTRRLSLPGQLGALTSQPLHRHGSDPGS

| SMILES | hERG current change (%, negative = inhibition) at 10uM [%] |
| --- | --- |
| C=CCOc1ccnc(-c2ccccc2)n1 | 10.2 |
| CC(=O)OC1c2ccccc2C(=O)N1c1ccccc1C (stereo not shown) | -5.3 |
| CCOC(=O)c1ccc(N2CCOCC2)c(NC(=O)c2ccc3c(c2)OCO3)c1 | -1.01 |
| CCOC(=O)C1=C(C)NC2=C(C(=O)CCC2)C1c1coc2ccccc2c1=O (stereo not shown) | 8 |
| COc1cccc(-c2nc(C(=O)NCCCN3CCOCC3)cc3c2[nH]c2ccccc23)c1 | -65.3 |
| CN(c1ccccc1)S(=O)(=O)c1ccc(C(=O)NCC(c2ccco2)N2CCCCC2)cc1 (stereo not shown) | -12.1 |
| O=C(NC1CC1)C(Cl)c1ccccc1 (stereo not shown) | 5.39 |
| CN(CC(=O)Nc1ccc(Cl)cc1)C(=O)CNC(=O)c1ccc(Br)o1 | -2.85 |
| O=C(Cn1ncc2c(=O)oc3ccccc3c21)N1CCc2ccccc2C1 | -5.56 |
| CCCCCc1c(O)c2ccccc2[nH]c1=O | 7.97 |
| O=C(OCC(=O)N1CCC(Cc2ccccc2)CC1)c1ccccc1F | -9.43 |
| C[n+]1c(-c2ccccc2)sc2ccccc21.[O-][Cl+3]([O-])([O-])[O-] | 23.1 |
| CC1(C)CC(=O)C=C(N2CCOCC2)C1 | 15.6 |
| CCSc1ncnc2c1sc1nc(-c3ccco3)c3c(c12)CC(C)(C)OC3 | 11.8 |
| CC1CC1C(=O)OCC(=O)NC(=O)NC12CC3CC(CC(C3)C1)C2 (stereo not shown) | -1.94 |
| O=C(c1ccc(S(=O)(=O)N2CCCC2)cc1)N1CCN(Cc2ccc3c(c2)OCO3)CC1 | -28 |
| CCCCN1CCN=C1Nc1ccccc1 | 15.2 |
| Cl.Nc1n[nH]c(-c2ccc(F)cc2)n1 | -12.2 |
| Cc1nc2ccccc2c(=O)n1/N=C/c1ccccc1 | -0.523 |
| Cn1c(=O)oc2cc(S(=O)(=O)N3CCC(C(=O)NCC4COc5ccccc5O4)CC3)ccc21 (stereo not shown) | 6.65 |
| COc1ccc(CN2CCNC(=O)C2CC(=O)NCC(C)(C)N2CCOCC2)cc1C (stereo not shown) | 20 |
| Cc1ccc(N/N=C/c2ccncc2)cc1.Cl | 4.03 |

| SMILES | hERG current change (%, negative = inhibition) at 10uM [%] |
| --- | --- |
| CCOc1ccc(-c2c(=O)n(OCc3ccc([N+](=O)[O-])cc3)c3ccccc3[n+]2[O-])c(OCC)c1 | 1.61 |
| CN1CCN(C2=C(NS(=O)(=O)c3ccccc3)C(=O)c3ccccc3C2=O)CC1 | 2.75 |
| COC(=O)c1ccccc1S(=O)(=O)N1CCC(C(=O)NCC2CCCO2)CC1 (stereo not shown) | 16.1 |
| COc1ccc(-c2noc(N3CCC(C(=O)Nc4cccc(OC)c4)CC3)n2)cc1 | 9.57 |
| COCCCNc1nc2ccccc2nc1NS(=O)(=O)c1ccc(Cl)cc1 | 2.14 |
| O=C(O)c1ccccc1C(=O)Nc1nc(-c2ccccc2)cs1 | -23.6 |
| O=C(C1CCCC1)N1CCCC(Nc2ccc(F)cc2)C1 (stereo not shown) | -37.2 |
| CCN1CCN(CCC(=O)Nc2ccccc2OC)CC1 | -11.2 |
| COc1ccc(C=C2c3ccccc3C(=O)c3ccccc32)c(OC)c1 | 16.1 |
| O=C(NNC(=O)c1ccc[nH]1)Nc1cc(Cl)cc(Cl)c1 | 9.88 |
| C/C(=C\C(=O)c1ccc(Br)cc1)Nc1cccc(Cl)c1 | 12.2 |
| O=C1CCC[C@@H]2[C@H]3CCC[N+]4([O-])CCC[C@@H](CN12)[C@@H]34 (stereo partly shown) | 17.2 |
| CCO[C@H]1OC(C(=O)NCc2nc3ccccc3[nH]2)=C[C@@H](C2CC2)[C@@H]1CCCO | -0.846 |
| Cn1nnnc1SCC(=O)Nc1nn(-c2ccccc2)nc1C(N)=O | -13.8 |
| O=C(c1cccc(S(=O)(=O)Nc2ccc(F)cc2)c1)N1CCCC1 | -3.1 |
| COc1cc(OC)cc(C(=O)Nc2ncc3c(n2)CC(C)CC3=O)c1 (stereo not shown) | -9.12 |
| O/N=C/c1ccnc(SCc2ccc(Cl)cc2)n1 | 10.5 |
| Cc1c(-c2cccc(NC(=O)c3cccs3)c2)nc2ncccn12 | -26.9 |
| O=C(NCc1ccccc1F)Nc1ccc([N+](=O)[O-])cc1 | 15.9 |
| O=C(COC(=O)c1ccc2c(c1)C(=O)N(Cc1ccncc1)C2=O)Nc1ccccc1[N+](=O)[O-] | -39.6 |
| O=C(Nc1ccc2ccccc2c1)NC1CCS(=O)(=O)C1 (stereo not shown) | 6.88 |
| O=C(COc1ccc(Cl)cc1Cl)N/N=C/c1ccccn1 | -21.4 |

| SMILES | hERG current change (%, negative = inhibition) at 10uM [%] |
| --- | --- |
| O=C(CCCCCn1c(=S)[nH]c2ccccc2c1=O)N1CCOCC1 | 0.941 |
| NC(=S)N=Nc1c(O)[nH]c2cc(F)c(F)cc12 | -0.539 |
| CC(NC(=O)c1ccccc1)C(=O)N/N=C/c1ccco1 (stereo not shown) | 18.8 |
| CCc1ccc(/C=C2/Sc3ccccc3N(CC(=O)NCCCN3CCOCC3)C2=O)cc1 | -41.3 |
| NC(=O)c1ccc(NC(=O)COC(=O)c2ccc3c(c2)OCCO3)cc1 | -4.09 |
| COC(=O)c1sc(S(=O)(=O)NCCCN(C)C)c(C(=O)OC)c1C | 4.45 |
| O=C(N/C(=C\c1cccnc1)C(=O)N1CCOCC1)c1cccc(Br)c1 | 6.87 |
| O=C(CNCc1ccccc1)NCCCN1CCCC1=O.O=C(O)C(=O)O | 14.4 |
| CCN(CC)C(=O)Cc1ccccc1 | 13 |
| O=C(O)c1ccc(S(=O)(=O)/N=C2\C=C(Nc3ccccc3F)C(=O)c3ccccc32)cc1 | -4.61 |
| COc1ccc(C)cc1S(=O)(=O)Nc1cc(Cl)ccc1Cl | 7.53 |
| CC(C)(C)c1cc(NC(=O)CCSc2nnc3ccccn23)cc(C(C)(C)C)c1 | 2.45 |
| CCOc1cc(NS(=O)(=O)CC)c(OCC)cc1NC(=O)c1ccco1 | -17.6 |
| CCOCCCn1c(=NC(C)=O)c(C#N)cc2c(=O)n3cccc(C)c3nc21 | -41.8 |
| CC(C)c1ccc(C2(C)NC(=O)N(CC(=O)NC3CCCC(C)C3C)C2=O)cc1 (stereo not shown) | -7.2 |
| Cc1nnc2c(N3CCN(CCO)CC3)nc3ccccc3n12 | 1.27 |
| Cc1ccc(N2CC(C(=O)Nc3ccc4c(c3)OCO4)CC2=O)cc1C (stereo not shown) | 14.1 |
| Cc1c(C)c2cccnc2c2ncccc12 | -1.81 |
| COc1ccc(OC)c(C2C3=C(N=C4SCC(=O)N42)c2ccccc2CC3)c1 (stereo not shown) | 2.19 |
| O=C(O)c1cccnc1Sc1ncnc2sc3c(c12)CCC3 | 8.49 |
| O=C(N/N=C\c1ccc(F)cc1)c1cc(OCC(F)(F)F)ccc1OCC(F)(F)F | -21 |
| Cc1ccc(CNCC(O)(c2ccccc2)c2ccc(F)cc2)cc1 (stereo not shown) | -45.6 |

| SMILES | hERG current change (%, negative = inhibition) at 10uM [%] |
| --- | --- |
| O=C1CCCc2c1[nH]c1ccccc21 | 17.5 |
| N/C(=N\OC(=O)Oc1ccccc1)c1ccc(Br)cc1 | 6.65 |
| COC(=O)c1c(N2C(=O)[C@H]3[C@@H](C2=O)[C@]2(C(=O)Nc4c2ccc(C)c4C)N2CCC[C@@H]32)sc(C)c1C | 15.4 |
| O=C1CCCN2N=C(SCC(=O)N3N=C(c4ccc(Br)cc4)CC3c3ccc(F)cc3)SC2=N1 (stereo not shown) | 1.94 |
| CC(C)COc1cccc(C(=O)NC2(C)CCS(=O)(=O)C2)c1 (stereo not shown) | -0.429 |
| O=C(CC1NC(=O)NC1=O)Nc1ccc(Cl)cc1 (stereo not shown) | 29.4 |
| O=C(N/N=C/c1ccc(OC(F)F)cc1)c1ccc(Br)cc1 | 2.81 |
| CCCCN1C(=O)C(=O)NC[C@@H]1C(C)CC (stereo partly shown) | 20.1 |
| COc1ccc(CN2CCN(Cc3ccc(C(F)(F)F)cc3)CC2)cc1.O=C(O)C(=O)O | -65.7 |
| O=C(COc1ccc2c3c(c(=O)oc2c1)CCCC3)N[C@@H](Cc1ccccc1)C(=O)O | -4.88 |
| NC(=O)CC(NC(=O)c1ccccc1)c1ccc(NCc2ccccc2)c([N+](=O)[O-])c1 (stereo not shown) | 17 |
| CCN(Cc1ccccc1)C(=O)c1ccc(NC(=O)c2ccc(OC)cc2)cc1 | 4.93 |
| Nc1cc(=O)[nH]c(SCC(=O)c2ccc(F)cc2)n1 | 9.03 |
| Cc1cc(C)c(NC(=O)CNC(=O)CN(C)Cc2ccc(Br)s2)c(C)c1 | -4.26 |
| CCN(CC)CCOC(=O)c1ccc(N/C=C(/C#N)c2nc(-c3cccc(OC)c3)cs2)cc1 | 9.72 |
| CC(=C1C(=O)c2ccccc2C1=O)N1CCN(c2ccccn2)CC1 | -28.3 |
| CN(CC(=O)Nc1ncn[nH]1)S(=O)(=O)c1ccc(Cl)cc1 | -6.56 |
| O=C(Cn1cccc1C(=O)c1ccccc1)NCc1ccco1 | 5.43 |
| Cn1cccc1/C=C1\SC(=Nc2cccc(O)c2)NC1=O | -13.5 |
| Cc1nc(Nc2ccccc2)sc1C(=O)Nc1ccccc1 | 7.99 |
| NC(=O)C1CN(S(=O)(=O)c2ccc(Cl)cc2F)c2ccccc2O1 (stereo not shown) | 15.5 |
| CC(=O)N1c2ccc(S(=O)(=O)N3CCCC3)cc2CC1C(=O)NCc1ccc(OC(C)C)cc1 (stereo not shown) | -14.6 |
